# From the supplement of paper PMC8728848
# The list shows a part of the results.
# Legend:
# Assay in all cases: glycan array binding signal (z-score within array); higher = stronger binding
# Details in all cases: glycan notation: IUPAC condensed, linker removed
# [1] = molecular target: Neu5Ac(a2-3)Gal(b1-4)GlcNAc(b1-6)GalNAc
# How it was run: (§1)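 Glycan array data came from 3228 arrays in the Consortium for Functional Glycomics database, and only arrays with an available protein sequence were kept. Glycan names were put into IUPAC-condensed notation, and columns mapping to the same glycan were averaged. The binding signal is a within-array Z-score, averaged across arrays of one protein sequence run at different concentrations or buffers and across linkers. A negative Z-score can be read as non-binding.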
# [2] = molecular target: Neu5Ac(a2-3)Gal(b1-4)GlcNAc(b1-6)[Gal(b1-3)]GalNAc
# How it was run: as §1
# [3] = molecular target: Neu5Ac(a2-3)Gal(b1-4)GlcNAc(b1-6)[Neu5Ac(a2-3)Gal(b1-3)]GalNAc
# How it was run: as §1
# [4] = molecular target: Neu5Ac(a2-3)Gal(b1-4)GlcNAc6S
# How it was run: as §1
# [5] = molecular target: Neu5Ac(a2-3)Gal(b1-4)[Fuc(a1-3)]GlcNAc
# How it was run: as §1
# [6] = molecular target: Neu5Ac(a2-3)Gal(b1-4)[Fuc(a1-3)]GlcNAc(b1-2)Man
# How it was run: as §1
# [7] = molecular target: Neu5Ac(a2-3)Gal(b1-4)[Fuc(a1-3)]GlcNAc(b1-3)Gal
# How it was run: as §1
# [8] = molecular target: Neu5Ac(a2-3)Gal(b1-4)[Fuc(a1-3)]GlcNAc(b1-3)Gal(b1-4)GlcNAc
# How it was run: as §1
# [9] = molecular target: Neu5Ac(a2-3)Gal(b1-4)[Fuc(a1-3)]GlcNAc(b1-3)Gal(b1-4)[Fuc(a1-3)]GlcNAc(b1-3)Gal(b1-4)[Fuc(a1-3)]GlcNAc
# How it was run: as §1
# [10] = molecular target: Neu5Ac(a2-3)Gal(b1-4)[Fuc(a1-3)]GlcNAc(b1-3)GalNAc
# How it was run: as §1
# [11] = molecular target: Neu5Ac(a2-3)Gal(b1-4)[Fuc(a1-3)]GlcNAc(b1-6)[Gal(b1-3)]GalNAc
# How it was run: as §1
# [12] = molecular target: Neu5Ac(a2-3)Gal(b1-4)[Fuc(a1-3)]GlcNAc(b1-6)[Neu5Ac(a2-3)Gal(b1-3)]GalNAc
# How it was run: as §1
# [13] = molecular target: Neu5Ac(a2-3)Gal(b1-4)[Fuc(a1-3)]GlcNAc6S
# How it was run: as §1
# [14] = molecular target: Neu5Ac(a2-3)Gal6S(b1-4)GlcNAc
# How it was run: as §1
# [15] = molecular target: Neu5Ac(a2-3)Gal6S(b1-4)[Fuc(a1-3)]GlcNAc
# How it was run: as §1
# [16] = molecular target: Neu5Ac(a2-3)GalNAc
# How it was run: as §1
# [17] = molecular target: Neu5Ac(a2-3)GalNAc(b1-4)GlcNAc
# How it was run: as §1
# [18] = molecular target: Neu5Ac(a2-3)[GalNAc(b1-4)]Gal(b1-4)Glc
# How it was run: as §1
# [19] = molecular target: Neu5Ac(a2-3)[GalNAc(b1-4)]Gal(b1-4)GlcNAc
# How it was run: as §1
# [20] = molecular target: Neu5Ac(a2-3)[GalNAc(b1-4)]Gal(b1-4)GlcNAc(b1-3)GalNAc
# How it was run: as §1
# [21] = molecular target: Neu5Ac(a2-3)[Neu5Ac(a2-6)]GalNAc
# How it was run: as §1
# [22] = molecular target: Neu5Ac(a2-6)Gal
# How it was run: as §1
# [23] = molecular target: Neu5Ac(a2-6)Gal(b1-3)GlcNAc(b1-3)[Gal(b1-4)GlcNAc(b1-6)]Gal(b1-4)Glc
# How it was run: as §1
# [24] = molecular target: Neu5Ac(a2-6)Gal(b1-4)Glc
# How it was run: as §1
# [25] = molecular target: Neu5Ac(a2-6)Gal(b1-4)GlcNAc
# How it was run: as §1
# [26] = molecular target: Neu5Ac(a2-6)Gal(b1-4)GlcNAc(b1-2)Man
# How it was run: as §1
# [27] = molecular target: Neu5Ac(a2-6)Gal(b1-4)GlcNAc(b1-2)Man(a1-3)Man(b1-4)GlcNAc(b1-4)GlcNAc
# How it was run: as §1
# [28] = molecular target: Neu5Ac(a2-6)Gal(b1-4)GlcNAc(b1-2)Man(a1-3)[Gal(b1-4)GlcNAc(b1-2)Man(a1-6)]Man(b1-4)GlcNAc(b1-4)GlcNAc
# How it was run: as §1
# [29] = molecular target: Neu5Ac(a2-6)Gal(b1-4)GlcNAc(b1-2)Man(a1-3)[GlcNAc(b1-4)][Neu5Ac(a2-6)Gal(b1-4)GlcNAc(b1-2)Man(a1-6)]Man(b1-4)GlcNAc(b1-4)GlcNAc
# How it was run: as §1
# [30] = molecular target: Neu5Ac(a2-6)Gal(b1-4)GlcNAc(b1-2)Man(a1-3)[Man(a1-6)]Man(b1-4)GlcNAc(b1-4)GlcNAc
# How it was run: as §1
# [31] = molecular target: Neu5Ac(a2-6)Gal(b1-4)GlcNAc(b1-2)Man(a1-3)[Neu5Ac(a2-3)Gal(b1-4)GlcNAc(b1-2)Man(a1-6)]Man(b1-4)GlcNAc(b1-4)GlcNAc
# How it was run: as §1
# [32] = molecular target: Neu5Ac(a2-6)Gal(b1-4)GlcNAc(b1-2)Man(a1-3)[Neu5Ac(a2-6)Gal(b1-4)GlcNAc(b1-2)Man(a1-6)]Man(b1-4)GlcNAc(b1-4)GlcNAc
# How it was run: as §1
# [33] = molecular target: Neu5Ac(a2-6)Gal(b1-4)GlcNAc(b1-2)Man(a1-3)[Neu5Ac(a2-6)Gal(b1-4)GlcNAc(b1-2)Man(a1-6)]Man(b1-4)GlcNAc(b1-4)[Fuc(a1-6)]GlcNAc
# How it was run: as §1
# [34] = molecular target: Neu5Ac(a2-6)Gal(b1-4)GlcNAc(b1-2)Man(a1-6)Man(b1-4)GlcNAc(b1-4)GlcNAc
# How it was run: as §1
# [35] = molecular target: Neu5Ac(a2-6)Gal(b1-4)GlcNAc(b1-2)Man(a1-6)[Gal(b1-4)GlcNAc(b1-2)Man(a1-3)]Man(b1-4)GlcNAc(b1-4)GlcNAc
# How it was run: as §1
# [36] = molecular target: Neu5Ac(a2-6)Gal(b1-4)GlcNAc(b1-2)Man(a1-6)[GlcNAc(b1-2)Man(a1-3)]Man(b1-4)GlcNAc(b1-4)GlcNAc
# How it was run: as §1
# [37] = molecular target: Neu5Ac(a2-6)Gal(b1-4)GlcNAc(b1-2)Man(a1-6)[Man(a1-3)]Man(b1-4)GlcNAc(b1-4)GlcNAc
# How it was run: as §1
# [38] = molecular target: Neu5Ac(a2-6)Gal(b1-4)GlcNAc(b1-2)[Neu5Ac(a2-6)Gal(b1-4)GlcNAc(b1-4)]Man(a1-3)[GlcNAc(b1-4)][Neu5Ac(a2-6)Gal(b1-4)GlcNAc(b1-2)[Neu5Ac(a2-6)Gal(b1-4)GlcNAc(b1-6)]Man(a1-6)]Man(b1-4)GlcNAc(b1-4)GlcNAc
# How it was run: as §1
# [39] = molecular target: Neu5Ac(a2-6)Gal(b1-4)GlcNAc(b1-2)[Neu5Ac(a2-6)Gal(b1-4)GlcNAc(b1-4)]Man(a1-3)[GlcNAc(b1-4)][Neu5Ac(a2-6)Gal(b1-4)GlcNAc(b1-4)Man(a1-6)]Man(b1-4)GlcNAc(b1-4)GlcNAc
# How it was run: as §1
# [40] = molecular target: Neu5Ac(a2-6)Gal(b1-4)GlcNAc(b1-2)[Neu5Ac(a2-6)Gal(b1-4)GlcNAc(b1-6)]Man(a1-6)[Neu5Ac(a2-6)Gal(b1-4)GlcNAc(b1-2)Man(a1-3)][GlcNAc(b1-4)]Man(b1-4)GlcNAc(b1-4)GlcNAc
# How it was run: as §1
# [41] = molecular target: Neu5Ac(a2-6)Gal(b1-4)GlcNAc(b1-3)Gal(b1-3)GlcNAc
# How it was run: as §1
# [42] = molecular target: Neu5Ac(a2-6)Gal(b1-4)GlcNAc(b1-3)Gal(b1-4)GlcNAc
# How it was run: as §1
# [43] = molecular target: Neu5Ac(a2-6)Gal(b1-4)GlcNAc(b1-3)Gal(b1-4)GlcNAc(b1-2)Man(a1-3)[Neu5Ac(a2-6)Gal(b1-4)GlcNAc(b1-3)Gal(b1-4)GlcNAc(b1-2)Man(a1-6)]GalNAc
# How it was run: as §1
# [44] = molecular target: Neu5Ac(a2-6)Gal(b1-4)GlcNAc(b1-3)Gal(b1-4)GlcNAc(b1-3)Gal(b1-4)GlcNAc
# How it was run: as §1
# [45] = molecular target: Neu5Ac(a2-6)Gal(b1-4)GlcNAc(b1-3)Gal(b1-4)GlcNAc(b1-3)Gal(b1-4)GlcNAc(b1-2)Man(a1-3)[Neu5Ac(a2-6)Gal(b1-4)GlcNAc(b1-3)Gal(b1-4)GlcNAc(b1-3)Gal(b1-4)GlcNAc(b1-2)Man(a1-6)]GalNAc
# How it was run: as §1
binder,measurement,setting,value
PNGase F (Flavobacterium meningosepticum) (protein) GIPAPADNTVNIKTFDKVKNAFGDGLSQSAEGTFTFPADVTAVKTIKMFIKNECPNKTCDEWDRYANVYVKNKTTGEWYEIGRFITPYWVGTEKLPRGLEIDVTDFKSLLSGNTELKIYTETWLAKGREYSVDFDIVYGTPDYKYSAVVPVVQYNKSSIDGVPYGKAHTLALKKNIQLPTNTEKAYLRTTISGWGHAKPYDAGSRGCAEWCFRTHTIAINNSNTFQHQLGALGCSANPINNQSPGNWTPDRAGWCPGMAVPTRIDVLNNSLIGSTFSYEYKFQNWTNNGTNGDAFYAISSFVIAKSNTPISAPVVTNLDPHHHHHH,glycan array binding signal (z-score),[1],-0.311
same,glycan array binding signal (z-score),[2],0.7
same,glycan array binding signal (z-score),[3],-0.321
same,glycan array binding signal (z-score),[4],-0.316
same,glycan array binding signal (z-score),[5],-0.377
same,glycan array binding signal (z-score),[6],0.002
same,glycan array binding signal (z-score),[7],-0.349
same,glycan array binding signal (z-score),[8],-0.267
same,glycan array binding signal (z-score),[9],-0.211
same,glycan array binding signal (z-score),[10],-0.141
same,glycan array binding signal (z-score),[11],-0.392
same,glycan array binding signal (z-score),[12],-0.137
same,glycan array binding signal (z-score),[13],-0.314
same,glycan array binding signal (z-score),[14],-0.401
same,glycan array binding signal (z-score),[15],-0.226
same,glycan array binding signal (z-score),[16],0.256
same,glycan array binding signal (z-score),[17],-0.321
same,glycan array binding signal (z-score),[18],-0.248
same,glycan array binding signal (z-score),[19],-0.368
same,glycan array binding signal (z-score),[20],-0.259
same,glycan array binding signal (z-score),[21],0.36
same,glycan array binding signal (z-score),[22],-0.129
same,glycan array binding signal (z-score),[23],-0.461
same,glycan array binding signal (z-score),[24],-0.215
same,glycan array binding signal (z-score),[25],-0.348
same,glycan array binding signal (z-score),[26],0.37
same,glycan array binding signal (z-score),[27],-0.304
same,glycan array binding signal (z-score),[28],0.184
same,glycan array binding signal (z-score),[29],-0.328
same,glycan array binding signal (z-score),[30],-0.309
same,glycan array binding signal (z-score),[31],-0.289
same,glycan array binding signal (z-score),[32],-0.391
same,glycan array binding signal (z-score),[33],-0.324
same,glycan array binding signal (z-score),[34],-0.334
same,glycan array binding signal (z-score),[35],-0.495
same,glycan array binding signal (z-score),[36],-0.388
same,glycan array binding signal (z-score),[37],-0.337
same,glycan array binding signal (z-score),[38],-0.274
same,glycan array binding signal (z-score),[39],0.013
same,glycan array binding signal (z-score),[40],-0.17
same,glycan array binding signal (z-score),[41],-0.301
same,glycan array binding signal (z-score),[42],-0.101
same,glycan array binding signal (z-score),[43],-0.273
same,glycan array binding signal (z-score),[44],-0.395
same,glycan array binding signal (z-score),[45],0.401
